Assay results: the supplement of paper PMC8728848
Some of the results follow.

Columns and labels:
Test in all cases: glycan array binding signal (z-score within array); higher = stronger binding
Settings in all cases: glycan notation: IUPAC condensed, linker removed
[1] = target: Neu5Ac(a2-6)Gal(b1-4)GlcNAc(b1-6)[Gal(b1-3)]GalNAc
Procedure, shortened: (§1)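 Columns mapping to the same glycan were averaged after glycan names were converted to IUPAC-condensed notation. The data come from 3228 arrays in the Consortium for Functional Glycomics database, limited to those with an available protein sequence. Binding is reported as a within-array Z-score averaged across arrays of one protein sequence and across linkers.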

[2] = target: Neu5Ac(a2-6)Gal(b1-4)GlcNAc6S
Procedure, shortened: as §1

Neu5Ac(a2-6)GalNAc = target: Neu5Ac(a2-6)GalNAc
Procedure, shortened: as §1

[3] = target: Neu5Ac(a2-6)GalNAc(b1-4)GlcNAc
Procedure, shortened: as §1

[4] = target: Neu5Ac(a2-6)GalNAc(b1-4)GlcNAc6S
Procedure, shortened: as §1

[5] = target: Neu5Ac(a2-6)GlcNAc(b1-4)GlcNAc
Procedure, shortened: as §1

[6] = target: Neu5Ac(a2-6)GlcNAc(b1-4)GlcNAc(b1-4)GlcNAc
Procedure, shortened: as §1

Neu5Ac(a2-8)Neu5Ac = target: Neu5Ac(a2-8)Neu5Ac
Procedure, shortened: as §1

[7] = target: Neu5Ac(a2-8)Neu5Ac(a2-3)Gal(b1-3)GalNAc(b1-4)[Neu5Ac(a2-3)]Gal(b1-4)Glc
Procedure, shortened: as §1

[8] = target: Neu5Ac(a2-8)Neu5Ac(a2-3)Gal(b1-3)GalNAc(b1-4)[Neu5Ac(a2-8)Neu5Ac(a2-3)]Gal(b1-4)Glc
Procedure, shortened: as §1

[9] = target: Neu5Ac(a2-8)Neu5Ac(a2-3)Gal(b1-4)Glc
Procedure, shortened: as §1

[10] = target: Neu5Ac(a2-8)Neu5Ac(a2-3)Gal(b1-4)GlcNAc
Procedure, shortened: as §1

[11] = target: Neu5Ac(a2-8)Neu5Ac(a2-3)[Gal(b1-3)GalNAc(b1-4)]Gal(b1-4)Glc
Procedure, shortened: as §1

[12] = target: Neu5Ac(a2-8)Neu5Ac(a2-3)[GalNAc(b1-4)]Gal(b1-4)Glc
Procedure, shortened: as §1

[13] = target: Neu5Ac(a2-8)Neu5Ac(a2-8)Neu5Ac
Procedure, shortened: as §1

[14] = target: Neu5Ac(a2-8)Neu5Ac(a2-8)Neu5Ac(a2-3)Gal(b1-4)Glc
Procedure, shortened: as §1

[15] = target: Neu5Ac(a2-8)Neu5Ac(a2-8)Neu5Ac(a2-3)[Gal(b1-3)GalNAc(b1-4)]Gal(b1-4)Glc
Procedure, shortened: as §1

[16] = target: Neu5Ac(a2-8)Neu5Ac(a2-8)Neu5Ac(a2-3)[GalNAc(b1-4)]Gal(b1-4)Glc
Procedure, shortened: as §1

[17] = target: Neu5Ac(a2-8)Neu5Ac(a2-8)Neu5Ac(a2-8)Neu5Ac(a2-3)[GalNAc(b1-4)]Gal(b1-4)Glc
Procedure, shortened: as §1

[18] = target: Neu5Ac(a2-8)Neu5Gc(a2-3)Gal(b1-4)GlcNAc
Procedure, shortened: as §1

[19] = target: Neu5Ac(b2-6)Gal(b1-4)GlcNAc
Procedure, shortened: as §1

Neu5Ac(b2-6)GalNAc = target: Neu5Ac(b2-6)GalNAc
Procedure, shortened: as §1

[20] = target: Neu5Ac9Ac(a2-3)Gal(b1-3)GlcNAc
Procedure, shortened: as §1

[21] = target: Neu5Ac9Ac(a2-3)Gal(b1-4)GlcNAc
Procedure, shortened: as §1

[22] = target: Neu5Ac9Ac(a2-6)Gal(b1-4)GlcNAc
Procedure, shortened: as §1

[23] = target: Neu5Gc(a2-3)Gal(b1-3)GlcNAc
Procedure, shortened: as §1

[24] = target: Neu5Gc(a2-3)Gal(b1-3)[Fuc(a1-4)]GlcNAc
Procedure, shortened: as §1

Neu5Gc(a2-3)Gal(b1-4)Glc = target: Neu5Gc(a2-3)Gal(b1-4)Glc
Procedure, shortened: as §1

[25] = target: Neu5Gc(a2-3)Gal(b1-4)GlcNAc
Procedure, shortened: as §1

[26] = target: Neu5Gc(a2-3)Gal(b1-4)GlcNAc(b1-3)Gal(b1-4)GlcNAc(b1-2)Man(a1-3)[Neu5Gc(a2-3)Gal(b1-4)GlcNAc(b1-3)Gal(b1-4)GlcNAc(b1-2)Man(a1-6)]Man(b1-4)GlcNAc(b1-4)GlcNAc
Procedure, shortened: as §1

[27] = target: Neu5Gc(a2-3)Gal(b1-4)[Fuc(a1-3)]GlcNAc
Procedure, shortened: as §1

[28] = target: Neu5Gc(a2-6)Gal(b1-4)GlcNAc
Procedure, shortened: as §1

Neu5Gc(a2-6)GalNAc = target: Neu5Gc(a2-6)GalNAc
Procedure, shortened: as §1

[29] = target: Neu5Gc(a2-8)Neu5Ac(a2-3)Gal(b1-4)GlcNAc
Procedure, shortened: as §1

[30] = target: Neu5Gc(a2-8)Neu5Gc(a2-3)Gal(b1-4)GlcNAc
Procedure, shortened: as §1

[31] = target: Neu5Gc(a2-8)Neu5Gc(a2-3)Gal(b1-4)GlcNAc(b1-3)Gal(b1-4)GlcNAc
Procedure, shortened: as §1

[32] = target: Neu5Gc(a2-8)Neu5Gc(a2-6)Gal(b1-4)GlcNAc
Procedure, shortened: as §1

[33] = target: Neu5Gc(b2-6)Gal(b1-4)GlcNAc
Procedure, shortened: as §1

B1: HPA (Helix pomatia), Q575S3 (protein)
chain: MWAHLTGLLLICALSLSAAQRAQTGEIDCGSDSSWPKDPSDNPNRDNTREIVKHVTFSPQFCREPKVILSVTTLDAEHTKNLRYEARLKSVSPSGLSASCYSWHDGTIYRMKLSWLAVED
glycan array binding signal (z-score) [1]: -0.257 | glycan array binding signal (z-score) [2]: -0.261 | glycan array binding signal (z-score) (Neu5Ac(a2-6)GalNAc): -0.271 | glycan array binding signal (z-score) [3]: -0.273 | glycan array binding signal (z-score) [4]: -0.254 | glycan array binding signal (z-score) [5]: -0.265 | glycan array binding signal (z-score) [6]: -0.267 | glycan array binding signal (z-score) (Neu5Ac(a2-8)Neu5Ac): -0.262 | glycan array binding signal (z-score) [7]: -0.262 | glycan array binding signal (z-score) [8]: -0.255 | glycan array binding signal (z-score) [9]: -0.264 | glycan array binding signal (z-score) [10]: -0.258 | glycan array binding signal (z-score) [11]: -0.245 | glycan array binding signal (z-score) [12]: 0.122 | glycan array binding signal (z-score) [13]: -0.27 | glycan array binding signal (z-score) [14]: -0.265 | glycan array binding signal (z-score) [15]: -0.246 | glycan array binding signal (z-score) [16]: 0.074 | glycan array binding signal (z-score) [17]: 0.06 | glycan array binding signal (z-score) [18]: -0.264 | glycan array binding signal (z-score) [19]: -0.26 | glycan array binding signal (z-score) (Neu5Ac(b2-6)GalNAc): -0.269 | glycan array binding signal (z-score) [20]: -0.272 | glycan array binding signal (z-score) [21]: -0.24 | glycan array binding signal (z-score) [22]: -0.274 | glycan array binding signal (z-score) [23]: -0.269 | glycan array binding signal (z-score) [24]: -0.27 | glycan array binding signal (z-score) (Neu5Gc(a2-3)Gal(b1-4)Glc): -0.255 | glycan array binding signal (z-score) [25]: -0.268 | glycan array binding signal (z-score) [26]: -0.245 | glycan array binding signal (z-score) [27]: -0.264 | glycan array binding signal (z-score) [28]: -0.264 | glycan array binding signal (z-score) (Neu5Gc(a2-6)GalNAc): -0.268 | glycan array binding signal (z-score) [29]: -0.259 | glycan array binding signal (z-score) [30]: -0.26 | glycan array binding signal (z-score) [31]: -0.266 | glycan array binding signal (z-score) [32]: -0.246 | glycan array binding signal (z-score) [33]: -0.266
